Experimental data taken from PubChem BioAssay AID488969 (Vanderbilt High Throughput Screening Facility, 2010).
Over roughly 110,000 compounds, “z-score” has its median near -0.1; the highest 2% begin near 2. The list shows a part of the results. Calls of active or inactive are those of the source.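 How the source made its calls: active means z-score in the third read window above 3 or below -3; inactive means the rest.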

What follows are molecules tested against Metabotropic glutamate receptor 8 (Rattus norvegicus) (UniProt P70579) (assay: rat mGluR8 modulators via GIRK flux, primary screen, cell-based, thallium flux, HTS (AID 488969)). Conditions: HEK293 rat mGluR8, GIRK (G protein-gated inwardly rectifying potassium channel) thallium flux, FluoZin2; at 10 µM; stronger effect = higher value; submaximal glutamate (EC20) added with thallium.
Sequence of UniProt P70579 (P70579 whole entry, looked up): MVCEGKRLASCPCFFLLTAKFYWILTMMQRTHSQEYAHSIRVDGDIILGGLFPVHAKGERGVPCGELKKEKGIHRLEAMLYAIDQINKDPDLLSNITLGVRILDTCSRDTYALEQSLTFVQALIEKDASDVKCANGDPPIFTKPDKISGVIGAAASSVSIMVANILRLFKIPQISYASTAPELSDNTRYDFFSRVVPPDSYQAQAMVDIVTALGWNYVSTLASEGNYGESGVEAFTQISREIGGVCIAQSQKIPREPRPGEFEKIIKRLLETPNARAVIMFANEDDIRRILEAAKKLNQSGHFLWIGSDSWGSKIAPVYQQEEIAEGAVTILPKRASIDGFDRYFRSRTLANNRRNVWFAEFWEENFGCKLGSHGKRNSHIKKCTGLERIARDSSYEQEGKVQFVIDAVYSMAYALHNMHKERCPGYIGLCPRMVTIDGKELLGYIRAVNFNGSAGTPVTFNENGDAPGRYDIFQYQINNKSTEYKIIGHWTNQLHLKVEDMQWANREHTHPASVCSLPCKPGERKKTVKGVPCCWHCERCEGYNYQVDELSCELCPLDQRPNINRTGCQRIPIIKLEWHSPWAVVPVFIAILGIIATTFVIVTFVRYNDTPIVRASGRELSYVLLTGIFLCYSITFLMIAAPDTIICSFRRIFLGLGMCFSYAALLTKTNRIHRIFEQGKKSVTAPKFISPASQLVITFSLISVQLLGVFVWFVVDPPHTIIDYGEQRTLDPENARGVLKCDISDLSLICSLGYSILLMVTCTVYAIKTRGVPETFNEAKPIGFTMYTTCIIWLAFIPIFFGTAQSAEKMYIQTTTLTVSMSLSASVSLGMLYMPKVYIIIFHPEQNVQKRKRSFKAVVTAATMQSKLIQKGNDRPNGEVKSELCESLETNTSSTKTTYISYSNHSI
With O=C(Cc1ccccc1)NC1CCN(C(=O)NCc2ccccc2)CC1 the z-score was 0.253.
Molecule COc1ccc(COn2c(=O)c(C)[n+]([O-])c3ccccc32)cc1OC has a z-score of 0.292.
For CC(C)Oc1ccc(NC(=O)CCC(=O)O)cc1, the z-score was -0.0457.
Nc1nnc(SCC(=O)c2ccco2)s1 showed a z-score of -0.0604.
Molecule COc1cc(NC(=O)C2CCCO2)c(C(=O)O)cc1OC (configuration not stated) has a z-score of -0.238.
O=C(Nc1nnc(N2CCCCCC2)s1)c1cc(-c2ccc(Br)cc2)on1 was tested, and the z-score was -0.0797.
In the case of Cn1cnnc1SCC(=O)Nc1sc2c(c1C(N)=O)CCC2, the z-score is reported as 0.737.
For Cc1ccc(SCCNS(=O)(=O)c2ccc3c(c2)OCCO3)cc1, the z-score was -0.27.
For COc1cccc(C2=N/C(=C\N(C)C)C(=O)O2)c1, the z-score was -0.0956.
Cc1c(NC(=S)Nc2ccccc2C(F)(F)F)cccc1[N+](=O)[O-] showed a z-score of 0.111.
COc1ccc(NC(=O)C(=O)NNC(=O)c2cccs2)c(OC)c1 was tested, and the z-score was active: 5.95.
With COC(=O)C1(CO)NC(c2cccs2)C2C(=O)N(c3ccccc3)C(=O)C21 (configuration not stated) the z-score was -0.22.
In the case of Cc1noc(C)c1S(=O)(=O)N(CC(=O)N1CCc2ccccc21)c1ccc(C(C)C)cc1, the z-score is reported as -0.427.
Work on CC1CCCC(C)N1CCCNC(=O)c1cc2c(=O)n(C)c3ccccc3c2n1C (configuration not stated) yielded a z-score of 2.79.
O=C1CNC(=O)N1Cc1ccc(Br)cc1 showed a z-score of 0.0483.
Molecule Cc1[nH]c2ccccc2c1C(=O)COC(=O)C1CCC(=O)N1 (configuration not stated) has a z-score of 0.0229.
CC(C)C(=O)Nc1ccccc1N1CCN(S(C)(=O)=O)CC1 showed a z-score of -0.374.
Molecule Cc1n[nH]c(=O)nc1NCc1ccco1 has a z-score of -0.442.
Work on CCOC(=O)N1CCC(NC(=O)CCC(=O)N2CC(C)Oc3ccc(C)cc32)CC1 (configuration not stated) yielded a z-score of 0.0805.
Work on Oc1ccc(Br)cc1/C=N/N1CCN(Cc2ccccc2)CC1 yielded a z-score of -0.134.
CNC(=S)SCCOc1ccc(C)cc1 was tested, and the z-score was active: 6.37.
COC(=O)Cn1c(C)nc2ccccc21 was tested, and the z-score was -0.49.
COc1cccc(-c2csc3nnc(SCC(=O)NCc4cccs4)n23)c1 showed a z-score of -0.315.
Work on O=C(NC(=S)Nc1ccc(NC(=O)c2ccco2)cc1)c1ccccc1 yielded a z-score of -0.416.
C=CCOc1ccccc1CNCc1cccnc1 was tested, and the z-score was -0.321.
For COc1ccccc1N1CCN(Cc2ccc(O)c3ncccc23)CC1, the z-score was -0.0396.
Molecule COc1ccc(C2CC(=O)n3c(nc4ccccc43)S2)cc1OC (configuration not stated) has a z-score of -0.117.
Work on Oc1c(C(c2cccs2)N2CCC3(CC2)OCCO3)sc2ncnn12 (configuration not stated) yielded a z-score of 0.13.
CCN(CC)c1ccc(NC(=O)c2cccnc2)c(C)c1 showed a z-score of 0.991.
Cc1ccc(S(=O)(=O)Cn2nnnc2C(C(C)C)N2CCSCC2)cc1 (configuration not stated) was tested, and the z-score was 0.905.
CC(=O)ON1C(C)(C)Cc2noc(N)c2C1(C)C showed a z-score of 0.801.
Work on CS(=O)(=O)N(CC(=O)N1CCCCCC1)c1ccc(Br)cc1 yielded a z-score of -0.166.
In the case of CC(C)[C@H](NC(=O)c1cccc(S(=O)(=O)N2CCCC2)c1)c1nc2ccccc2[nH]1, the z-score is reported as 0.167.
Molecule C/C(=N/NC(=O)c1ccoc1C)c1ccc(N2CCOCC2)cc1 has a z-score of -0.148.
In the case of COc1ccc(Nc2ncc(C(=O)N3CCN(c4ccccc4OC)CC3)c3ccccc23)cc1, the z-score is reported as -0.66.
For COc1cccc(/C=N/NC(=O)c2c(-c3ccccc3)noc2C)c1O, the z-score was -0.212.
O=C(/C=C/c1ccco1)NC(=S)Nc1cc(-c2nc3ccccc3s2)ccc1Cl showed a z-score of -0.258.
Molecule COn1c(=O)c(=O)n(OC)c2ccccc21 has a z-score of -0.144.
Work on CCCC(=O)Nc1ccc(NC(=O)c2ccccn2)cn1 yielded a z-score of -0.311.
Molecule CCOC(=O)Cc1csc(NC(=O)c2sc3nc4c(C)cc(C)cc4cc3c2N)n1 has a z-score of -0.144.
In the case of COc1ccc2cc(CCNC(=O)CC(C)(C)C)c(=O)[nH]c2c1, the z-score is reported as 0.0363.
In the case of COC(=O)c1cc(OC)c(OC)cc1NC(=S)N1CCN(Cc2ccccc2)CC1, the z-score is reported as 0.237.
With CCN(CC1COc2ccccc2O1)C(=S)Nc1ccccc1 (configuration not stated) the z-score was -0.261.
With Cc1[nH]c2ccccc2c1C(=O)CSc1nc2ccccc2c(=O)n1CCCN1CCOCC1 the z-score was 0.383.
In the case of O=C(C1CCN(S(=O)(=O)c2ccc(Cl)cc2)CC1)N1CCOCC1, the z-score is reported as -0.486.
COc1ccc(OCc2nc(N)nc(Nc3ccccc3OC)n2)cc1 was tested, and the z-score was 0.138.
For CCOc1cc(/C=C2\C(=O)ON=C2C)ccc1OCc1ccccc1, the z-score was -0.275.
CCC(CC)C(=O)Nc1cc(OC)c(OC)cc1C(=O)O gave a z-score of -0.741.
O=C(Cc1ccccc1)NNC1CC(=O)N(c2ccccc2)C1=O (configuration not stated) was tested, and the z-score was -0.0913.
O=C1N/C(=C\c2ccccc2)C(O)=C1C=NCc1ccccc1 showed a z-score of -0.0728.
COc1cc2c(cc1NC(=O)COC(=O)c1ccc(C(C)(C)C)cc1)oc1ccccc12 showed a z-score of 0.126.
Cc1cc(C)c(C)c(S(=O)(=O)N2C(=S)NC(=O)C2C(C)C)c1C (configuration not stated) was tested, and the z-score was 0.083.
O=C(Nc1cccc([N+](=O)[O-])c1)c1ccc2c(c1)OCO2 showed a z-score of -0.205.
Molecule COc1ccc(NS(=O)(=O)Cc2ccccc2)cc1OC has a z-score of -0.0457.
Cc1c(Cl)cccc1NC(=O)c1ccc(OCC(=O)NCc2ccccc2)cc1 was tested, and the z-score was -0.37.
COC(=O)c1ccccc1NC(=S)N(Cc1ccc2c(c1)OCO2)Cc1cc2cccc(C)c2[nH]c1=O was tested, and the z-score was -0.261.
CCOC(=O)c1cc2n(c1C)-c1ccccc1C2=O was tested, and the z-score was -0.128.
COC(=O)C1=C(CN2CCSCC2)NC(=O)NC1c1cc(C)ccc1C (configuration not stated) gave a z-score of -0.254.
Work on O=c1cc(CSc2ccc(S(=O)(=O)N3CCCCC3)cn2)nc2sccn12 yielded a z-score of -0.415.
Work on O=C(Cn1cccc1C(=O)c1ccccc1)NCc1ccccc1 yielded a z-score of 0.198.
O=C(CSc1nc2ccccc2o1)Nc1ccc(Cl)cc1 gave a z-score of -0.438.
NC(=O)COc1ccc(/C=N/NC(=O)C2CCCN2S(=O)(=O)c2ccc(Cl)cc2)cc1 (configuration not stated) gave a z-score of -0.275.
Work on CCOC(=O)c1cc(NC(=O)Nc2nc3ccccc3s2)c(C)nc1C yielded a z-score of -0.113.
In the case of O=C1NN(c2ccccc2)C(=O)/C1=C/c1coc2ccccc2c1=O, the z-score is reported as -0.738.
With Cc1ccc(C(=O)CNc2ccc(F)cc2)cc1 the z-score was -0.146.
CCC(=O)Nc1cccc(SC)c1 showed a z-score of -0.659.
Work on O=C1NC2(Nc3ccccc31)C(=O)Nc1ccccc12 (configuration not stated) yielded a z-score of 0.475.
With COCCNC(=O)c1c(N)sc2c1CCCC2 the z-score was -0.0249.
CCC(=O)Nc1ncc2c(n1)CC(c1ccco1)CC2=O (configuration not stated) showed a z-score of 1.34.
O=C(Nc1ccc(Cl)c(Cl)c1)O/N=C/c1ccncc1 was tested, and the z-score was 0.0392.
Molecule COc1cc(OC)nc(NC(=O)CSc2nnc(-c3ccccc3)n2C2CCCCC2)n1 has a z-score of -0.277.
With CCOC(=O)CSc1nc(C)c2cc(OC)ccc2n1 the z-score was active: 6.89.
CCCCNC(=O)c1onc(CSc2cccc(F)c2)c1C(=O)O was tested, and the z-score was -0.276.
COc1ccc(/C=N/N=C2/NC(=O)C(c3ccccc3)S2)c(OC)c1 (configuration not stated) showed a z-score of -0.166.
With O=C(CCn1cccc1)NCc1ccc(Cl)cc1 the z-score was 0.111.
Cc1ccc(NC(=O)NC2CCN(S(=O)(=O)c3ccc(F)cc3)CC2)cc1 showed a z-score of 0.564.
CCOC(=O)CS(=O)(=O)c1nc(-c2ccccc2)cc(C(F)(F)F)n1 was tested, and the z-score was -1.
In the case of CS(=O)(=O)Nc1ccccc1C(=O)Nc1cccc(Cl)c1, the z-score is reported as -0.243.
With COc1ccc(CCn2c(-c3cccc([N+](=O)[O-])c3)nc3nc4ccccc4nc32)cc1OC the z-score was -0.0921.
Molecule O=C(O)CNS(=O)(=O)c1cc(Cl)c(Cl)cc1Cl has a z-score of -0.632.
For Cc1cccc2cc(C#N)c(SCC(=O)Nc3ccccc3N3CCOCC3)nc12, the z-score was -0.0912.
With CC(=O)c1ccc(NC(=O)COC(=O)CCN2C(=O)c3cccc([N+](=O)[O-])c3C2=O)cc1 the z-score was -0.201.
For CC(C)c1ccc(NS(=O)(=O)c2ccc3[nH]cc(C(=O)N4CCC(C(N)=O)CC4)c(=O)c3c2)cc1, the z-score was 0.0959.
COc1ccc(-c2nc3c(c(=O)n(C)c(=O)n3C)n2CC2CC(c3ccccc3)=NO2)cc1OC (configuration not stated) showed a z-score of 2.08.
With CC(=O)Nc1c(C)cc(S(C)(=O)=O)cc1C the z-score was 0.226.
In the case of O=C(CN1C(=O)C2C3C=CC(C3)C2C1=O)Nc1ccc2nccnc2c1 (configuration not stated), the z-score is reported as 0.0363.
In the case of O=C(c1cc2c(s1)-c1ccccc1S(=O)(=O)C2)N1CCN(Cc2ccccc2)CC1, the z-score is reported as -0.0146.
O=C(N/N=C/c1cccs1)c1ccc(NC(=O)c2ccccc2Cl)cc1 gave a z-score of -0.183.
In the case of CC(C)OC(=O)CSc1nc2c(c(C3CC=CCC3)c1C#N)CCC2 (configuration not stated), the z-score is reported as 0.0295.
O=C1Nc2ccccc2/C1=N\c1sc2c(c1C(=O)Nc1ccccc1)CCCC2 was tested, and the z-score was 0.907.
Molecule COc1ccc(C2C(C(=O)O)CCC(=O)N2c2ccc(OC)cc2)cc1 (configuration not stated) has a z-score of -0.399.
For Cc1ccc2cc(C#N)c(SCC(=O)NCC3CCCO3)nc2c1 (configuration not stated), the z-score was 0.016.
With O=C(Nc1nc2c(Cl)cccc2s1)c1ccc(Br)o1 the z-score was 0.452.
With O=C(Nc1cccc(F)c1)c1cc(S(=O)(=O)N2CCC(C(=O)O)CC2)ccc1F the z-score was -0.145.
Cc1noc(NS(=O)(=O)c2ccc(NC(=O)Nc3ccc(Cl)c(Cl)c3)cc2)c1C showed a z-score of -0.154.
In the case of Fc1ccccc1NC(=S)N1CCN(c2ccccn2)CC1, the z-score is reported as -0.138.
Work on COC(=O)C1C(=O)C=C(Nc2ccc(F)cc2F)CC1c1ccc(OC)cc1 (configuration not stated) yielded a z-score of -0.711.
With O=C(Nc1ccc(S(=O)(=O)N2CCCCC2)cc1)c1cnccn1 the z-score was -0.589.
Cc1ccc2[nH]c(=O)c(COC(=O)C3CCCO3)cc2c1 (configuration not stated) showed a z-score of 0.197.
In the case of COC(=O)c1ccc(NC(=S)NC2CC3CCC2C3)cc1 (configuration not stated), the z-score is reported as 1.
Cc1ccc2c(CSc3nc4nc(C)cc(C)n4n3)cc(=O)oc2c1 gave a z-score of -0.245.
Work on CCOC(=O)C1=C(C)NC(=O)C(C(N)=O)C12CCCCC2 (configuration not stated) yielded a z-score of 0.437.
CCc1cccc(C)c1NC(=O)CN1C(=O)c2ccccc2S1(=O)=O gave a z-score of 0.297.
With O=C(NC(Cc1ccccc1)c1ccc2c(c1)OCCCO2)c1ccccc1F (configuration not stated) the z-score was 0.0517.
Molecule CC(C)CNC(=O)C1CCCN(S(=O)(=O)c2ccc(-n3cnnn3)cc2)C1 (configuration not stated) has a z-score of -0.0594.
Molecule CC(C)Oc1ccccc1C1CC(=O)Nc2cc3c(cc21)OCO3 (configuration not stated) has a z-score of -0.905.
O=C(c1ccccc1)c1nccc2ccccc12 showed a z-score of -0.111.
CCOc1cccc(OCCOc2ccccc2[N+](=O)[O-])c1 showed a z-score of -0.153.
C#CC1(O)CC(C)NCC1(C)CCC#N (configuration not stated) showed a z-score of -0.128.
In the case of COc1ccc(C2C=C(C)Nc3nc(SC)nn32)cc1 (configuration not stated), the z-score is reported as -0.206.
COc1cc2c(cc1OC)C(C1C(=O)CC(C)CC1=O)N(C(=O)CCl)CC2 (configuration not stated) gave a z-score of 0.249.
With Cc1ccccc1SCC(=O)OCC(=O)Nc1sccc1C(N)=O the z-score was -0.224.
